Out of some 150,000 compounds screened, about 540 (0.36%) showed an effect of 50% or more. This is one part of the list.
Each compound was assayed on Plasmodium falciparum (assay: Primary screen in NF54 nanoGlo assay, in single point, at 2uM, 72h; a lower Z score goes with more inhibition). Details: timepoint 72 hour.
Type: functional, Erythrocyte

Compound	% Inhibition	Z score
COCCn1nc(C)c(CNC[C@H]2CCC=CO2)c1C	-12%	1.31
CC(=O)c1cccc(-n2c(=O)c3ccccc3n(CC(=O)NCCN3CCCC3)c2=O)c1	-16%	1.67
COc1ccc(NC(=O)Cn2c(C)ccc2C)cc1-c1nnc(C)o1	-9%	1.74
O=C(Cc1csc(-c2cccnc2)n1)NCc1ccncc1	1%	-0.13
CC(=O)/C(=N\Nc1ccc(Cl)c(C(N)=O)c1)Nc1ccc(C)cc1C	-7%	0.84
O=C(CNc1cc(C(F)(F)F)cc(C(F)(F)F)c1)NCc1ccc2c(c1)OCO2	-10%	1.26
CCc1cc2c(N3CCN(c4ccnnc4)CC3)nc(C)nc2s1	-2%	0.45
CCC(=O)N1CCc2nc(-c3ccncc3)nc(N3CCCC3)c2CC1	-27%	4.61
O=C(Nc1cc(C2CCCCC2)[nH]n1)c1cncnc1C1CC1	-3%	0.69
CC(C)[C@H](Oc1ccccc1)C(=O)N1CC2(CNC(=O)N2)C1	-10%	1.67
Cc1cccc(C(=O)N2[C@H](C(=O)N3CCOCC3)COC23CCN(C(=O)c2cccc(F)c2)CC3)c1	0%	0.01
CCONC(=O)NC1CCCCC1O (stereo not drawn)	-2%	0.19
COc1cccc(-n2ccnc2-c2ccc(C#CCO)cc2)c1	2%	-0.34
O=C(NCc1ccc(OC2CCCC2)nc1)c1ccc(OCC2CC2)cc1	-9%	0.92
CN(Cc1ccc(Br)o1)C(=O)C(C)(C)C	-9%	1.67
O=C(NCc1cc2n(n1)CCN(c1ncc(F)cn1)C2)C1CCC1	-13%	1.63
COc1cccc(CN2CC3(CCN(C(=O)Cc4cc(C)no4)CC3)CC2=O)c1	-12%	1.67
Cn1c(C(C)(C)NC(=O)CN2CCOCC2)nc2ccccc21	-5%	0.96
Cc1cc(C(=O)NCCCn2cccn2)nc(N2CCOCC2)n1	31%	-0.55
CCCN1CCC[C@H]1C(=O)NCc1cccc(NC(=O)c2ccco2)c1	-11%	1.39
Cc1ccccc1CC(C)(C)NC(=O)[C@H]1CC12CCNCC2	3%	-0.5
CC[C@H](Oc1ccc(=O)n(-c2cc(Cl)ccc2C)n1)C(=O)NCCOC	-15%	2.25
CCc1ccccc1NC(=O)c1[nH]c2cc(C)sc2c1CN1CCOCC1	-16%	1.55
O=C(c1cnc2[nH]cnc2c1)N1CC[C@H](C(F)(F)F)C1	-7%	1.2

Source: ChEMBL document CHEMBL4888484, “Replenishing the malaria drug discovery pipeline: Screening and hit evaluation of the MMV Hit Generation Library 1 (HGL1) against asexual blood stage Plasmodium falciparum ,using a nano luciferase reporter read-out” (2022)
